In US12377072B2, “Modulators of GTPases and their use” (priority 2010, dated 2025):

Experiments:
ovarian tumor cells = assay: Ovarian tumor cell proliferation; format: cell-based, human; details: data not shown
OVCA 429 cells [1] = assay: Multicellular aggregate (MCA) formation, hanging drop; details: FIG. 4C, 100 μM, 24 h
OVCA 429 cells [2] = assay: Ovarian tumor cell migration, modified Boyden chambers; details: OVCA 429, FIG. 4A
COX enzymes = details: cited from earlier work
prostate cancer = details: ref [30]; cited from earlier work
Rac1 [3] = biological target: T1, Rac1 (Homo sapiens, UniProt P63000); assay: GLISA cellular assay of activated Rac1 (Pak-binding plate assay); format: cell-based; details: GLISA, cells +/- 10 ng/ml EGF for 2 min
Procedure: (§1) (A) GLISA measures cellular effects of small molecules on Rac1. […] Equal cell lysate protein was assayed for activated Rac1 using a commercial, plate based Pak-binding assay according to manufacturer's instructions (GLISA, Cytoskeleton, Inc.). […] Rac1 crystal structure used to dock molecules via FRED (OpenEye).
(§2) GLISA is extensively used for measuring EGF-stimulated Rac and Cdc42 activation in Swiss 3T3 cells in the presence and absence of test compounds. […] GLISAs in are highly specific, quantitative, can be performed with small sample sizes (<50 μg of cell lysate per assay, compared to 1-10 mg required for conventional PAK binding assay) and have excellent reproducibility. To assess the inhibitory effects of the small molecules in Table 2, preincubate cells for 15-60 min (times that establish detection of acute GTPase inhibition) with varying concentrations of each compound as described. NSC23766 serves as a positive control for Rac1 inhibition. […] Activated RhoA is also measured by GLISA following lysophosphatidic acid stimulation as an additional specificity control as needed.

Cdc42 = biological target: T2, Cdc42 (Homo sapiens, UniProt P60953); assay: GLISA cellular assay of activated Cdc42; format: cell-based; details: cells +/- EGF
T2 construct: endogenous in cells; host or cells: OVCA429 / OVCA433 and/or Swiss 3T3 cells
T2 sequence (P60953 whole entry): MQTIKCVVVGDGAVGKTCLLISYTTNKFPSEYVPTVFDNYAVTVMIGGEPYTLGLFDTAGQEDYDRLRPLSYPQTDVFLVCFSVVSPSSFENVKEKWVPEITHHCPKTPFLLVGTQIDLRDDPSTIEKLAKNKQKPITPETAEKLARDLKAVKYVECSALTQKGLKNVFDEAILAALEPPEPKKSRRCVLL
Procedure: as §1, §2

Rac1 [4] = biological target: T1, Rac1; details: purified protein
SKOV3ip cells = assay: Intraperitoneal xenograft of GFP-tagged SKOV3ip cells in athymic nude mice; details: oral in dough, 2 weeks of tumor growth

| SMILES | inhibition of ovarian tumor cell proliferation (ovarian tumor cells) | inhibition of MCA formation (OVCA 429 cells [1]) | inhibition of ovarian tumor cell migration (OVCA 429 cells [2]) | inhibition of Rac1 GTPase activity (Rac1 [3]) | further results |
| --- | --- | --- | --- | --- | --- |
| COc1ccc2cc(CC(=O)O)ccc2c1 [6-MNA, 6-methoxy-2-naphthalene acetic acid] | little effect | little effect | little effect | – | – |
| CCN(CC)CCCC(C)Nc1nc(C)cc(Nc2ccc3nc(C)cc(N)c3c2)n1 (stereo not shown) [NSC23766] | inhibit | inhibit | inhibit | – | – |
| CCc1cccc2c3c([nH]c12)[C@@](CC)(CC(=O)O)OCC3 [R-etodolac] | – | – | – | – | COX inhibitory activity (COX enzymes): no COX inhibitory activity; tumor development and metastasis (prostate cancer): retard tumor development and metastasis |
| O=C(c1ccccc1)c1ccc2n1CC[C@H]2C(=O)O [R-ketorolac] | little inhibition | – | – | inhibit | inhibition of Cdc42 GTPase activity (Cdc42): inhibit |
| COc1ccc2cc([C@@H](C)C(=O)O)ccc2c1 [R-naproxen] | – | – | – | inhibit | activity against Rac1 in library screen (Rac1 [4]): active; reduction in tumor number (SKOV3ip cells; 10 mg/kg): 4 fold; decrease in total tumor burden (SKOV3ip cells): 36% |
| O=C(c1ccccc1)c1ccc2n1CC[C@@H]2C(=O)O [S-ketorolac] | little inhibition | – | – | – | – |
